In PubChem BioAssay AID624417 (National Center for Advancing Translational Sciences (NCATS), 2012):
Out of some 410,000 compounds screened, about 6,400 (1.6%) were called active. The inconclusive results got no clear call from the source; some entries with a clear call stand among them for comparison. The call rests on the fitted dose curve; in most records, active means well fitted inhibition curve with a large enough effect; inconclusive means small, poorly fitted or top-dose-only effect; inactive means no such curve, though single readings can be large or run the other way. Where the call is inconclusive, the potency comes from a doubtful curve fit.

What follows are compounds tested against Glucagon-like peptide 1 receptor (Homo sapiens) (UniProt P43220) (assay: qHTS of GLP-1 Receptor Inverse Agonists (Inhibition Mode)). Conditions: HEK293 GLP-1R CRE-luciferase, luminescence, 24 h, GLP-1R form is constitutively active; activity change, negative = inhibition: at 38.3 µM (top of the series) unless noted.
How it was run: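 Inverse agonists were sought by their lowering of basal cAMP reporter luciferase output in HEK293 cells stably carrying constitutively active human GLP-1R, after 24 h compound treatment.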
Further: nearly all actives have a fitted effect of over 55% in size.
On the % scale 0 is the no-effect control and ±100 the full control effect; potency means the concentration at half of the fitted maximal effect; tags describe the fitted curve by direction and shape.

UniProt P43220, sequence (P43220 whole entry, looked up): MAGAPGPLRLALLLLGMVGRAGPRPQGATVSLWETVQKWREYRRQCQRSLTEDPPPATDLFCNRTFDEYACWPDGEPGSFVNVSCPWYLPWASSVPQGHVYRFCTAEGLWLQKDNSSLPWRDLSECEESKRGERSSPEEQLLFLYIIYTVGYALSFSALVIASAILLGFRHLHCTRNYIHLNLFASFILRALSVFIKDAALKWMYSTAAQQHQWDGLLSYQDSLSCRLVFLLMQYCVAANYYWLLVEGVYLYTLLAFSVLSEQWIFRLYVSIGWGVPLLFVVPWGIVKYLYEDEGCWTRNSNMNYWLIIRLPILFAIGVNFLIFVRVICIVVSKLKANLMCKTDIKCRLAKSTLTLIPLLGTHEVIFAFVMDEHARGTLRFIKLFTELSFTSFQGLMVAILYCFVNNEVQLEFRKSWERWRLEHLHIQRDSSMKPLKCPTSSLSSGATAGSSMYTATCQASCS

Potency, inconclusive:
Cc1ccc(N2C(=O)C(CN3CCOCC3)C2c2ccccc2)cc1 (configuration not stated) 5.62 µM [inhibitor, full curve, poor fit], CCCC(C)(C)C(=O)N1CCC1(C)C(=O)Nc1cccc2ccccc12 (configuration not stated) 12.6 µM [inhibitor, single point], CCN1C(=O)C(=Cc2cccc(OC)c2Oc2ccc([N+](=O)[O-])cc2[N+](=O)[O-])SC1=S 28.2 µM [inhibitor, single point], c1ccc(-c2nc3cc4ccccc4cc3[nH]2)nc1 10 µM [inhibitor, partial curve, poor fit], COc1cccc(/C=N/NC(=O)CNC(=O)COc2cccc(C)c2)c1O 3.55 µM [inhibitor, partial curve, poor fit], COc1ccc(Cn2nnnc2C(c2ccccc2Cl)N2CCN(C)CC2)cc1 (configuration not stated) 28.2 µM [inhibitor, single point], COc1cc(OC)cc(C2=Cc3ccccc3C(CC(C)=O)N2c2ccc(C#CCCO)cc2)c1 (configuration not stated) 28.2 µM [inhibitor, single point], CCc1nc(SCc2ccc(OCC(C)C)cc2)n[nH]1 28.2 µM [inhibitor, single point], CC(C)C[C@H]1CN([C@@H](CC(C)C)CN2CCC[C@@H]2CN2C(=S)NC[C@@H]2Cc2ccc(O)cc2)C(=S)N1CC1CCCCC1 10 µM [inhibitor, partial curve, poor fit], CCNC(=S)N=Nc1c(O)[nH]c2ccc([N+](=O)[O-])cc12 7.94 µM [inhibitor, partial curve, poor fit], COc1ccc(NS(=O)(=O)c2ccc3oc(Nc4ccc5c(c4)OCCO5)nc3c2)cc1 28.2 µM [inhibitor, single point], Cc1[nH]c2ccccc2c1CCN(Cc1cccs1)C(=S)Nc1ccccc1 17.8 µM [inhibitor, partial curve, poor fit], Oc1c(Br)cc(Br)cc1C=Nc1ccc2[nH]ncc2c1 22.4 µM [inhibitor, single point], Cc1ccc2nc(NC(=O)CCn3c(=O)sc4ccccc43)sc2c1 10 µM [inhibitor, partial curve, poor fit], COc1ccc(OC)c(CC(=O)Nc2ccc3c(c2)CCC3)c1 11.2 µM [inhibitor, single point], O=C(NC(=S)NN1CCCCC1c1cccnc1)c1ccc(Cl)cc1Cl (configuration not stated) 8.91 µM [inhibitor, partial curve, poor fit], Cc1ccc(Cn2c(C(CO)Nc3nc(-c4ccc(Cl)c([N+](=O)[O-])c4)cs3)nc3ccccc32)cc1 (configuration not stated) 10 µM [inhibitor, partial curve, poor fit], CCN(CC)S(=O)(=O)c1ccc(C(C)NC(=O)Cc2c[nH]c3ccccc23)cc1 (configuration not stated) 28.2 µM [inhibitor, single point], COc1ccccc1Cc1c(-c2ccc(OC)c(OC)c2)nc2c(Cl)cc(C(F)(F)F)cn12 28.2 µM [inhibitor, single point], CCOc1ccc(CN(C)c2nc(-c3cccnc3)nc3ccccc23)cc1OC 28.2 µM [inhibitor, single point], OCCC1CN(Cc2cnc(-c3ccccc3)s2)CCN1C1CCCC1 (configuration not stated) 7.94 µM [inhibitor, partial curve, poor fit], O=C(COC(=O)c1ccc(F)cc1Cl)NC1CCCCCCC1 11.2 µM [inhibitor, partial curve, poor fit], C/C(=N/N1CCN(Cc2cccc3ccccc23)CC1)c1cccnc1 31.6 µM [inhibitor, single point], CC(Nc1ccc(Br)cn1)c1cc(Cl)ccc1O (configuration not stated) 11.2 µM [inhibitor, partial curve, poor fit], Cn1c(=O)c2c(nc(CN3CCc4ccccc4C3)n2Cc2ccccc2F)n(C)c1=O 1.26 µM [inhibitor, full curve, poor fit], O=C(Nc1ccccc1)C1CCCN1S(=O)(=O)c1ccc(Br)cc1 (configuration not stated) 31.6 µM [inhibitor, single point], Cc1ccc(CN2C(=O)C(Cc3ccccc3)Nc3ncnc(N4CCCCC4)c32)cc1 (configuration not stated) 11.2 µM [inhibitor, single point], Cc1cccc(C(=O)NC(=S)NCc2ccccc2)c1 11.2 µM [inhibitor, single point], Cc1cc(=O)n(-c2ccc(O)cc2)[nH]1 7.94 µM [inhibitor, partial curve, poor fit], Cc1nn(-c2ccccc2)c(N2CCCC2)c1/C=N/NC(=O)c1cccc(S(=O)(=O)Nc2ccc(Cl)cc2)c1 10 µM [inhibitor, partial curve, poor fit], CC(C)Cc1cc(CNC(=O)C2CCC(=O)N(Cc3cccc(C(F)(F)F)c3)C2)on1 (configuration not stated) 31.6 µM [inhibitor, single point], Cc1ccccc1NC(=O)CSc1nc(COc2ccccc2)nc2ccccc12 28.2 µM [inhibitor, single point], COC(=O)CCSc1cc([N+](=O)[O-])cc2c1c(C1OCCS1)nn2-c1ccccc1 (configuration not stated) 28.2 µM [inhibitor, single point], CC(Cc1cccnc1)NC(=O)c1cc(COc2ccc(F)cc2Cl)on1 (configuration not stated) 10 µM [inhibitor, partial curve, poor fit], CC1CC(=S)Nc2ccccc2S1 (configuration not stated) 20 µM [inhibitor, single point], Cc1ccc(NC(=O)c2nnn(-c3ccc4c(c3)OCCO4)c2N)cc1 28.2 µM [inhibitor, single point], Cc1nonc1CC(=O)N1CCc2c([nH]c3ccccc23)C1c1ccccc1F (configuration not stated) 11.2 µM [inhibitor, partial curve, poor fit], CCc1ccccc1Nc1cc(C(=O)NC2CCC(C)CC2)c2ccccc2n1 (configuration not stated) 22.4 µM [inhibitor, single point], CCCC(=O)C1=C(O)C(C(=O)OC)C(C)(C)CC1=Nc1ccc(Br)cc1 (configuration not stated) 12.6 µM [inhibitor, single point], COc1ccc(OCC(=O)Nc2ccc(S(=O)(=O)N3CCCCC3)cc2)cc1 28.2 µM [inhibitor, single point], Cc1nc(-c2c(-c3ccc(O)cc3O)noc2C(F)(F)F)cs1 14.1 µM [inhibitor, partial curve, poor fit], COc1ccc(CNC(=O)c2cc(-c3ccc(C)c(C)c3)n[nH]2)cc1 28.2 µM [inhibitor, single point], CCc1cccc(CC)c1C(OC(C)=O)c1cccnc1 (configuration not stated) 12.6 µM [inhibitor, partial curve, poor fit], OCCC1CN(Cc2ccc3c(c2)CCO3)CCN1C1CCCC1 (configuration not stated) 28.2 µM [inhibitor, single point], O=C(CN(c1ccccc1)S(=O)(=O)c1ccc(F)cc1)N1CCCCCC1 6.31 µM [inhibitor, partial curve, poor fit], Cc1cc(C)cc(-n2ccnc2SCC(=O)Nc2ccc3c(c2)OCCO3)c1 14.1 µM [inhibitor, single point], CCCCNC(=S)NCc1ccc2[nH]c(C)cc2c1 15.8 µM [inhibitor, single point], Cc1cc(Oc2ccc(N)cn2)cc(C)c1Cl 12.6 µM [inhibitor, partial curve, poor fit], S=c1[nH]nc(-c2ccc(Cl)cc2Cl)n1Cc1ccccc1 8.91 µM [inhibitor, partial curve, poor fit], O=C(CSC1=NCCN1)NC12CC3CC(CC(C3)C1)C2 3.55 µM [inhibitor, partial curve, poor fit]

Potency, active:
COc1cccc(/C=N/Nc2cc(-n3nc(C)cc3-c3ccccc3)ncn2)c1O 3.55 µM

Activity change, negative = inhibition, inactive:
COc1ccc(Cl)cc1N/C(N)=N/c1nc(C)cc(=O)[nH]1 7.06%, COc1ccccc1NC(=O)NCC1(N(C)C)CCCCC1 -6.65%, Cn1cc(C(=O)NS(=O)(=O)Nc2ccc(Br)cn2)c2ccccc21 27.1%, Clc1ccc(Cl)c(OCCN2CCCC2)c1 -1.04%, O=C(/C=C/c1ccc(O)c(O)c1)c1ccccc1O 16.4%, Cc1c([N+](=O)[O-])nnn1-c1cc(Cl)cc(Cl)c1 -14.4%, COc1ccccc1N1CCN(c2nc3c(S(=O)(=O)c4ccc(C)c(C)c4)nnn3c3ccc(Cl)cc23)CC1 8.82%, NC(=O)CC(NC(=O)c1ccccc1)c1ccc(NC2CCN(Cc3ccccc3)CC2)c([N+](=O)[O-])c1 (configuration not stated) 24.3%, Cc1ccc(-n2nc3c(c2NC(=O)c2ccc(F)c(F)c2)CS(=O)(=O)C3)cc1 7.74%, CCOC(=O)C(=O)Nc1c(C(=O)Nc2cccc(F)c2)oc2ccccc12 9.54%, O=C(O)c1[nH]c2ccc(Cl)cc2c1CC(=O)N1CCN(C(=O)c2ccco2)CC1 8.56%
